In patent US20220363775A1 (Memorial Sloan Kettering, published 2022) one finds EC50 data, which are given here for one molecule.

This assay deals with T1, human C-type lectin domain family 12 member A (CLEC12A) (human, UniProt Q5QGZ9 1-265).
T1 construct: also called CD371; CLL-1
T1 sequence: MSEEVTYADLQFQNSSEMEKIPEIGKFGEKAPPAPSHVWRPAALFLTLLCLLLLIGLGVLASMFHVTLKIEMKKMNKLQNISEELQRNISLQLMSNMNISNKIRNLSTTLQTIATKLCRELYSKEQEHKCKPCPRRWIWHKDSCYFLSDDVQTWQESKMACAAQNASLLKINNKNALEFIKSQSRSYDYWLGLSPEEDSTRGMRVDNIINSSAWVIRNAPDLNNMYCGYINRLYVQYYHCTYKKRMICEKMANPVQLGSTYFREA
The experiment in a line: flow cytometry, dose titration of purified scFv-Fc on live cells expressing the target. (In general: A flow cytometer gives signals particle by particle.)

B1: CLEC12A scFv-Fc (purified recombinant CLEC12A-A scFv fused to Fc) (Fc fusion)
chain: QLQLQESGPGLVKPSETLSLTCTVSGGSISSSTYYWGWIRQPPRKGLEWIGSTHYRGSTYYNPSLKSRVTISVDTSKNQFSLKVSSVTAADTAVYYCARELTGEVFDYWGQGTLVTVSSASTGGGGSGGGGSGGGGS[in this place about 100 residues]
notes: also called CLEC12A scFv (CLEC12A-A); not shown: Fc part (and any linker) of the scFv-Fc is not described
In the case of B1, the EC50 was 0.081 µg/mL.

Broadly, the EC50 is the concentration giving half of the maximal effect.
